Test results as given in PubChem BioAssay AID624202 (National Center for Advancing Translational Sciences (NCATS), 2012).
In all, about 380,000 compounds went through this assay and about 4,000 (1.1%) were called active. This list was built around the results that the source calls inconclusive (neither active nor inactive); the mix of calls is not that of the screen. Calls follow the shape of the dose curve; as a rule, active = well fitted activation curve with a large enough effect; inconclusive = small, poorly fitted or top-dose-only effect; inactive = no such curve, though single readings can be large or run the other way. A potency beside an inconclusive call is a rough fit, not a confirmed value.

Test: qHTS Assay to Identify Small Molecule Activators of BRCA1 Expression; also: nearly all actives have a fitted effect of over 80% in size
Settings: MCF7-BRCA1-FFLuc reporter, luminescence, 48 h; activation: at 46.1 µM (top of the series), scaled: vehicle 0%, 10 µM genistein 100% unless noted
Outline: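 Luminescence from a BRCA1-driven firefly luciferase in MCF7 cells was the read-out, taken 15 min after substrate addition following 48 h compound exposure at 37 °C. Data were normalized to a 10 microM genistein control and DMSO vehicle.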
Potency is read from the fitted curve at half-maximal effect; tags tell the direction and shape of the fitted curve.

SMILES	Potency	activation
Cc1ccc(-c2nc(-c3ccccc3)no2)cc1	inconclusive: 3.16 µM [activator, partial curve, poor fit]	–
O=C(NCCc1ccccc1)c1ccc(NC(=O)C2CCC2)cc1	inconclusive: 11.2 µM [activator, partial curve, poor fit]	–
Cc1ccc(S(=O)(=O)NCC(=O)NCC(=O)N(C)Cc2ccc(Br)s2)cc1C	–	inactive: -20.9%
O=C(NC(=S)Nc1ccc2c(c1)OCCO2)c1ccccc1	inconclusive: 2.51 µM [activator, partial curve, poor fit]	–
CC1(C)Cc2c(C#N)c(OCC(=O)c3ccc(Cl)cc3)nc(-c3ccoc3)c2CO1	–	inactive: -5.75%
CCCCC[C@H](O)/C=C/[C@H]1CCC(=O)[C@@H]1CCCCCCC(=O)N1CCCCC1CO (stereo not given in full)	–	inactive: -63.3%
CC(C)Oc1ccc(C(=O)NC2=NCCS2)cc1	–	inconclusive: 55.3% [activator]
Cc1ccc(SCc2cn3ccccc3n2)cc1	inconclusive: 2 µM [activator, full curve, poor fit]	–
COc1ccc(N2CCC(CNC(=O)Nc3ccc(C)c(C)c3)C2)cc1 (stereo not given)	–	inactive: -9.49%
Fc1ccc(NC(=S)Nc2cccc3ccccc23)cc1	–	inactive: -38%
Nc1c(C(=O)c2ccccc2)sc2nsc(SCCN3CCOCC3)c12	inconclusive: 7.08 µM [activator, partial curve, poor fit]	–
CN1/C(=C\C(=O)c2cccnc2)Sc2ccccc21	inconclusive: 3.16 µM [activator, partial curve, poor fit]	–
COc1cccc(CSc2nc3ccncc3[nH]2)c1	inconclusive: 2.82 µM [activator, full curve, poor fit]	–
COCCN(C(=O)c1sc2ccccc2c1Cl)c1c(N)n(CC(C)C)c(=O)[nH]c1=O	–	inactive: 2.08%
Cc1ccc2nc(-c3ccc(-c4ccccn4)s3)cn2c1	inconclusive: 0.501 µM [activator, full curve, poor fit]	–
O=C(CC1CCCCC1)NCc1ccc(F)cc1	inconclusive: 28.2 µM [activator, single point]	–
CCOc1ccc(-c2nnc(N(CC)C(=O)C3CCC3)s2)cc1	inconclusive: 7.94 µM [activator, partial curve, poor fit]	–
CC(C)CNC(=O)c1cc(-c2ccc(Br)cc2)on1	inconclusive: 2.24 µM [activator, partial curve, poor fit]	–
COc1cccc(-c2nc(CS(=O)(=O)c3ccccc3)no2)c1	inconclusive: 2.51 µM [activator, full curve, poor fit]	–
Cc1ccc(C(=O)CC(=O)c2ccc(C(C)(C)C)cc2)cc1	inconclusive: 12.6 µM [activator, partial curve, poor fit]	–
O=C(Nc1nc(-c2ccc3c(c2)OCCO3)cs1)C1CCCC1	inconclusive: 2.24 µM [activator, full curve, poor fit]	–
Cc1cc(=O)n2[nH]c(-c3ccc(Cl)cc3)cc2n1	inconclusive: 2.24 µM [activator, full curve, poor fit]	–
CC(C)c1ccc(-c2nnn(CCC#N)n2)cc1	inconclusive: 20 µM [activator, partial curve, poor fit]	–

SMILES	Potency	activation
O=C(Nc1nccs1)c1cc(-c2ccco2)nc2ccccc12	–	inactive: -72%
O=C(/C=C/c1ccco1)Nc1ccccc1C(=O)O	inconclusive: 1.58 µM [activator, partial curve, poor fit]	–
OC(COc1ccc(OCc2ccccc2)cc1)CN1CCCCC1 (stereo not given)	inconclusive: 15.8 µM [activator, single point]	–
O=C(Nc1ccc(/C=C/c2nc3ccccc3o2)cc1)c1c(F)cccc1F	inconclusive: 35.5 µM [activator, single point]	–
CCN1C(=O)/C(=C/N2CCc3ccccc32)SC1=S	active: 3.16 µM	–
Nc1c(C(=O)Nc2ccc(Cl)cc2)oc2ccccc12	active: 2.51 µM	–
O=C(O)c1ccccc1CSc1nc2ccccc2[nH]1	inconclusive: 3.98 µM [activator, partial curve, poor fit]	–
CN(C)c1ccc(-c2nc3ccccc3n2C)cc1	–	inconclusive: -91.8% [activator]
COc1cccc(C(=O)Nc2cccc(OC(C)=O)c2)c1	inconclusive: 22.4 µM [activator, single point]	–
CCOc1ccc(OCc2ccc(C(=O)Nc3cccc(C)n3)o2)cc1	inconclusive: 2 µM [activator, partial curve, poor fit]	–
O=c1c(-c2ccc(F)cc2)coc2cc(O)ccc12	active: 11.2 µM	–
Cc1nc2ccc(NC(=O)Cc3ccccc3F)cc2s1	inconclusive: 1.58 µM [activator, partial curve, poor fit]	–
CC(=O)c1ccc2oc3ccccc3c(=O)c2c1	active: 7.94 µM	–
CC(C)NC(=O)N(C)C[C@H]1Oc2cc(C#Cc3ccc(F)cc3)ccc2S(=O)(=O)N([C@H](C)CO)C[C@H]1C	–	inactive: -36%
O=C(N[C@H]1CCCCNC1=O)c1cc(COc2ccc(F)cc2F)on1	inconclusive: 35.5 µM [activator, single point]	–
CCOC(=O)c1c(-c2ccccc2)cn2c(C)cc(C)nc12	inconclusive: 15.8 µM [activator, partial curve, poor fit]	–
CS(=O)(=O)N1N=C(c2ccc(Br)cc2)CC1c1cccs1 (stereo not given)	inconclusive: 7.08 µM [activator, partial curve, poor fit]	–
Cc1ccc(-c2nnc(Cc3ccc([N+](=O)[O-])cc3)o2)cc1	inconclusive: 12.6 µM [activator, partial curve, poor fit]	–
CCCNC(=S)NCCN1CCCCC1	–	inactive: -0.415%
CC(=O)Nc1ccc(N=Nc2ccccc2)cc1	inconclusive: 2.24 µM [activator, full curve, poor fit]	–
NC(=O)c1ccsc1NC(=O)c1ccc(S(=O)(=O)N2CCCC2)cc1	active: 12.6 µM	–
O=c1c(-c2nc3ccccc3s2)cccn1Cc1ccccc1	inconclusive: 1.58 µM [activator, partial curve, poor fit]	–
